# The full ranking holds about 2,300 compounds; the median of “protection from cell death (ATP increase)” is about -18, and the highest 2% start at about 170. The list shows a part of the results. Potency and affinity values are given separately. Entries without a call are filed as inconclusive in the source.
# Assay: INS-1E survival protection against cytokine death – cell-based, luminescence, retest, dose response (AID 449756)
# Conditions: INS-1E rat beta cells, cytokine apoptosis rescue, ATP luminescence 48 h; at 26 µM (top of the series) unless noted
row,Compound,protection from cell death (ATP increase)
1,COc1cc2c(cc1OC)[C@@H]1C(=O)c3ccc4c(c3O[C@@H]1CO2)C[C@H](C(C)C)O4,145%
2,c1ccc2c3c([nH]c2c1)C1(CCNCC1)NCC3,-19.9%
3,CC(C)(C)c1ccc(CSc2cnn(C(C)(C)C)c(=O)c2Cl)cc1,153%
4,NC(N)=N/N=C/c1cn(-c2ccccc2)nc1-c1cccs1,-43.7% [at 6 µM]
5,CCN1/C(=C\C=C\C2=[N+](CC)c3ccccc3C2(C)C)C(C)(C)c2ccccc21,146%
